Data reported in publication PMC4336329 (PLoS ONE, 2015).
Out of some 310,000 compounds screened, about 2,200 (0.71%) showed an effect of 50% or more. Effects have a minus sign here. This is one part of the list.

Biological target: human ether-à-go-go-related gene (hERG) potassium channel (human, UniProt Q12809)
Assay: primary screen, population patch clamp on CHO cells stably expressing hERG

Chain of human ether-à-go-go-related gene (hERG) potassium channel (Q12809 whole entry, looked up): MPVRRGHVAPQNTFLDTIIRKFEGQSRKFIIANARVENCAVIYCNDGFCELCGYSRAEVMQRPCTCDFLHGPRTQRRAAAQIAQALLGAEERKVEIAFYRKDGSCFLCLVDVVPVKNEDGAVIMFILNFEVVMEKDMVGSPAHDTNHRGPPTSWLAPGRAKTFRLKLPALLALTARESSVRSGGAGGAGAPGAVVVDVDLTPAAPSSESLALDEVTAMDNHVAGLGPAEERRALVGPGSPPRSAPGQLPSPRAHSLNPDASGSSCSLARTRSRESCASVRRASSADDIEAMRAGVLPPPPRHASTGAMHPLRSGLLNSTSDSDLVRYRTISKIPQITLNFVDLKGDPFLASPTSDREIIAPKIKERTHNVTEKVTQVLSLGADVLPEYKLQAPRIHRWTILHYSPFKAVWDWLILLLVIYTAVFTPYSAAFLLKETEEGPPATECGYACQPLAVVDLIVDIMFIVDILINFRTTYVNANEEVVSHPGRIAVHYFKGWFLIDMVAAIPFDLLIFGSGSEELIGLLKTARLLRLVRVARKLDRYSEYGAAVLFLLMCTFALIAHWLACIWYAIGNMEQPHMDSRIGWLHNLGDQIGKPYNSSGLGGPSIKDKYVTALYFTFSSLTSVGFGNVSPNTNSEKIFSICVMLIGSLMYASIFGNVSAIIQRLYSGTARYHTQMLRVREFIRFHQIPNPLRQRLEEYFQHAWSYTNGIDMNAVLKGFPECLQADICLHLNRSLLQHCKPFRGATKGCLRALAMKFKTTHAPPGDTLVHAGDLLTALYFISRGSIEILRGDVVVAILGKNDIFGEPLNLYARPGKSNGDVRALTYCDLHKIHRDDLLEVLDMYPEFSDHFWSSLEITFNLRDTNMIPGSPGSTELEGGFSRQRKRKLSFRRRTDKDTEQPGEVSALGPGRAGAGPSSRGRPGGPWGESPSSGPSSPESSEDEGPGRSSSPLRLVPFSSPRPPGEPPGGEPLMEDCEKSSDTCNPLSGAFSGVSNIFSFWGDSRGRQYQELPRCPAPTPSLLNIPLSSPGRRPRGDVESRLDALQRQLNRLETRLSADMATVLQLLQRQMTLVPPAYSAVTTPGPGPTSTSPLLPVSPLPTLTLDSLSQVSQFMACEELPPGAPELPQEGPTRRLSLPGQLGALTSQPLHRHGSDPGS

SMILES	hERG current change (%, negative = inhibition) at 1uM [%]
CCCCNC(=O)CCn1nc(-c2ccc(C)cc2)c2ccccc2c1=O	2.87
O=C(CN1C(=O)NC2(CCCc3ccccc32)C1=O)NCc1cccs1 (stereo not shown)	11
Cc1cccc(C2c3[nH]c4ccccc4c3CCN2C(=O)c2cc(-c3cccn3C)n[nH]2)n1 (stereo not shown)	5.01
CCCS(=O)(=O)N1CCCC(C(=O)N2CCCCC2)C1 (stereo not shown)	18.2
CC(=O)c1cnc2c(-c3ccccc3)cnn2c1C	4.96
O=C(O)Cn1cc(C(=O)c2ccccc2F)c2ccccc21	16.8
O=C(CCC(=O)N1CCOCC1)NCCc1ccc(Cl)cc1Cl	4.48
O=S(=O)(Nc1cccc(-c2nc3cccnc3s2)c1)c1cccs1	7.81
CCOCC(O)CS(=O)Cc1ccccc1 (stereo not shown)	10.3
Cc1nn(-c2ccccc2)c2nc(=O)n(-c3ccccc3)cc12	9.27
CN(c1ccccc1)S(=O)(=O)c1cccc(C(=O)Nc2nn[nH]n2)c1	7.06
CCc1cc(C(=O)N/N=C/c2ccc(O)cc2O)c2ccccc2n1	15
COc1ccc(C(=O)NC2CCN(Cc3c(F)cccc3Cl)CC2)cc1OC	10.1
CC1(C)CC(=O)C2=C(C1)NC(=O)CC2c1ccccc1F (stereo not shown)	-1.08
CCN(CC)c1ccc(/C=N/NC(=O)c2ccccn2)cc1	10.3
CCOc1ccc(CSC(=N)N)cc1.Cl	9.77
COc1ccc(CNC(=O)Oc2ccccc2)cc1Cl	7.05
COc1ccc(Cl)cc1C(=O)C1CCCN(CCO)C1 (stereo not shown)	11.2
O=C(NC1CCCCC1)C1c2ccccc2C(=O)N1Cc1ccco1 (stereo not shown)	-1.39
O=C1CN(C(=O)c2cc3ccccc3oc2=O)C(c2ccc(F)cc2)c2cc(F)ccc2N1 (stereo not shown)	4.13
COc1ccc([C@@H]2CC=C(C(=O)O)[C@H](c3ccccc3)N2S(=O)(=O)c2ccccc2C)cc1	11.2
O=C(Nc1cc(Cl)cc(Cl)c1)c1ccc(Cn2c(=O)[nH]c3ccsc3c2=O)cc1	6.12

SMILES	hERG current change (%, negative = inhibition) at 1uM [%]
CCOc1ccccc1Oc1cn[nH]c1-c1ccc(O)cc1O	9.91
O=C1NN(c2ccccc2)C(=O)/C1=C\c1cccc(OC(=O)c2cccs2)c1	8.42
Cc1ccc([N+](=O)[O-])cc1S(=O)(=O)N1CCCN(C)CC1.Cl	15.8
CNCc1ccccc1OCc1ccccc1F.Cl	9.82
CC(C)OCCCNC(=O)CCCC(=O)Nc1ccc(OCCc2ccccc2)cc1	17.8
C=COCCNC(=O)Nc1ccc(Cl)cc1Cl	8.22
O=C(CCc1ccccc1)NNC(=S)Nc1ccc(F)cc1	4.35
CCOc1ccccc1C1CC(c2ccc(Br)cc2)Nc2nc(N)nn21 (stereo not shown)	-9.81
CN(C)CCCN(Cc1cc2cc3c(cc2[nH]c1=O)OCO3)C(=S)Nc1cccc(Cl)c1	-4.06
COc1cc(NS(=O)(=O)c2ccc(NC(=S)NC(=O)c3ccc(F)cc3)cc2)nc(OC)n1	0.221
C=CCNc1nc(Nc2ccccc2F)nc(OCC)n1	5.09
COc1cc(/C=C(\C#N)c2[nH]nc(N)c2C#N)cc(OC)c1O	20.9
COc1ccc(OC)c(C(=O)c2ccc(C(=O)Nc3cccc4ccccc34)cc2)c1	15.1
CC(C)CC1NC(=O)N(CC(=O)c2ccc3c(c2)OCCO3)C1=O (stereo not shown)	9.81
CC1C(=O)C(C)C(c2ccccc2F)NC1c1ccccc1F (stereo not shown)	7.91
O=C(Cc1ccc(Nc2nc(=S)[nH]c3ccccc23)cc1)NC1CCCCC1	19.8
CC(=O)Nc1ccccc1NC(=O)c1cc(C)cc(C)c1	11.5
Cc1ccc(NS(=O)(=O)c2ccc(Br)s2)cc1S(=O)(=O)N1CCOCC1	13.2
CCN(CC)S(=O)(=O)c1csc(C(=O)Nc2ccccn2)c1	-3.46
COc1cccc([C@@H]2Oc3ccc(OC)cc3C(=O)[C@H]2OC(=O)N[C@H](C)C2CCCCC2)c1	12.4
CC(c1ccon1)N(C)C(=O)c1ccc2nc(Cc3cccc(Cl)c3)oc2c1 (stereo not shown)	-3.4
Cc1ccc(Cl)cc1N1CCN(S(=O)(=O)c2cc3c(cc2C)NC(=O)CO3)CC1	7.77

SMILES	hERG current change (%, negative = inhibition) at 1uM [%]
O=C(Nc1ccc2[nH]ncc2c1)C1CCC1	12.3
Cc1ccc(Oc2ccc(NC(=O)Cn3ccsc3=N)cc2)cc1.Cl	1.56
O=C(CSc1nnc(-c2ccccn2)n1Cc1ccccc1)N1CCCC1	-3.87
COc1ccc(O)c(C(=O)CC(=O)c2ccccc2C)c1	18.2
OC(CCc1cccc(Cl)c1)c1cccs1 (stereo not shown)	17.3
COc1ccc(NC(=O)c2cccc3c(Br)cccc23)cc1	15.3
Cc1cccc(C(=O)NCC(=O)NC(C)c2ccc(-n3ccnc3)cc2)c1 (stereo not shown)	-37.1
CCCC(=O)OCCNc1cc(SCc2ccco2)c2nonc2c1[N+](=O)[O-]	4.49
COc1ccccc1NC(=O)CSc1nnc(NC(=O)C2CC2)s1	12.6
CCNC(=O)NC1(C(=O)Nc2ccc3c(c2)CCC3)CCCCC1	1.26
Cc1ccc(N(Cc2cc(=O)[nH]c3ccccc23)C(=O)CCl)c(C)c1	13.4
Cc1ccc(C)c(N2C(=O)CC(Cc3ccccc3)C2=O)c1.Cl (stereo not shown)	15
Cc1ccccc1Cn1c(CN2CCc3ccccc3C2)nc2c1c(=O)n(C)c(=O)n2C	11.2
CN(CC(=O)Nc1ccc(N2CCOCC2)cc1)CC(=O)Nc1ccccc1C#N	5.54
CCN(CC)S(=O)(=O)c1ccc(N2CCCC2)c(NC(=O)Cc2cc(OC)c(OC)c(OC)c2)c1	6.75
CC(=O)c1cccc(OCC(=O)N2CCCc3ccccc32)c1	4.93
COc1ccc(CCNC(=O)C(=O)NCCOc2ccccc2)cc1OC	3.13
CCN(CC)S(=O)(=O)c1ccc(Cl)c(C(=O)NC)c1	3.08
COc1ccc(C(=O)NCC(=O)N/N=C/C(C)=C/c2ccco2)cc1OC	16.7
O=C(CN1CCN(Cc2ccc3c(c2)OCO3)CC1)Nc1ccc2c(c1)OCO2	-64.3
COc1ccc(NC(=O)C(=O)NCCN2CCN(C(=O)c3cccc(Br)c3)CC2)cc1	-5.64
Cc1ccc2c(c1)-c1[nH]c(=S)ncc1CS2	15.9

SMILES	hERG current change (%, negative = inhibition) at 1uM [%]
CC(Sc1nc2cc(Cl)ccc2s1)C(=O)Nc1cccc(S(=O)(=O)N2CCOCC2)c1 (stereo not shown)	-0.0431
Cc1ccc2nc(NC(=O)c3ccc(Br)o3)sc2c1	23.4
Clc1ccc(-n2nnnc2-c2cnc(-c3ccncc3)nc2-c2cccs2)cc1	-3.83
Cc1cc(C)nc(NS(=O)(=O)c2ccc(NC(=O)CSc3nc4ccccc4[nH]3)cc2)n1	-5.97
Cc1ccc(N(C(=O)c2ccccn2)C(C(=O)NC2CCCCC2)c2ccncc2)cc1 (stereo not shown)	11.7
Nc1ccccc1-c1nc2ccccc2[nH]c1=O	11.2
COc1ccccc1/C=C/C(=O)NCC(=O)N/N=C/c1ccc2c(c1)OCO2	16.6
CC(C)N(CC(N)=O)C(=O)Cc1coc2cc3c(cc12)CCC3	9.14
Cc1ccn2c(NC(=O)c3cccs3)c(-c3ccccc3)nc2c1	8.62
O=C(COC(=O)Cc1ccc(F)cc1)NC1CCS(=O)(=O)C1 (stereo not shown)	2.81
Cc1ccc2c(C(=O)CN3CCCC(C)C3)c(C)[nH]c2c1 (stereo not shown)	6.35
C[N+](C)(C)C[C@H](O)CC(=O)[O-]	3.24
O=C(Nc1cccc(O)c1)c1ccc(NC(=O)c2cccs2)cc1	13.8
CCC1(CC)C(=O)C2=C3C1[C@H](C(=O)OC)C=C(C(=O)OC)C[C@H]3[C@H]1C(=O)N(Cc3ccccc3)C(=O)[C@H]1[C@H]2C (stereo partly shown)	4.54
COc1ccc2c(CC(=O)N3CCN(S(=O)(=O)c4ccc(F)cc4)CC3)coc2c1	7.59
O=C(Nc1nnc(S(=O)(=O)N2CCCCCC2)s1)c1ccc(Br)cc1	1.03
Cn1cc(CN2CCC(C(=O)Nc3cccc(-c4cccc(F)c4)c3)CC2)cn1	-37.9
CCOC(=O)C[C@H]1c2cc(C(F)(F)F)ccc2S(=O)(=O)N1Cc1ccccc1	4.32
OCCC1CN(Cc2nc3c(s2)CCCC3)CCN1CCc1ccccc1 (stereo not shown)	-10.6
CCOC(=O)/C(N=Nc1ccc(C(=O)O)cc1[N+](=O)[O-])=C(\C)O	21.6
O=C1CCN2C=Nc3cccc4ccc1c2c34	8.64
O=C(Nc1cccc(Cl)c1)c1cc(S(=O)(=O)N2CCCCC2)c[nH]1	-13
